Experimental data: a compilation of properties of binary mixtures (doi:10.1016/j.molliq.2017.11.153)
The densities may have been worked out from excess volumes.

Experiment: xn = mol fraction of the nth substance listed
Conditions: 101 kPa

CCCC[n+]1ccccc1.N#C[N-]C#N + CC1COC(=O)O1
mass density [kg/m3]
Conditions | x1 = 0.1003 | x1 = 0.197 | x1 = 0.3005 | x1 = 0.4003 | x1 = 0.4997 | x1 = 0.6002 | x1 = 0.7011 | x1 = 0.7885 | x1 = 0.9008 | x1 = 1
288.15 K | – | 1166 | 1148 | 1133 | 1120 | 1109 | 1099 | 1091 | 1082 | 1075
293.15 K | 1181 | 1162 | 1144 | 1129 | – | 1105 | 1095 | 1087 | 1079 | 1072
298.15 K | 1177 | 1157 | – | 1126 | 1113 | 1102 | – | – | 1076 | 1069
303.15 K | 1172 | 1153 | – | 1122 | 1110 | – | 1089 | 1081 | 1072 | 1066
308.15 K | – | 1149 | – | 1118 | 1106 | 1095 | – | 1078 | 1069 | 1062
313.15 K | – | 1144 | – | 1114 | 1102 | 1092 | 1082 | 1074 | 1066 | 1060
318.15 K | – | 1140 | 1124 | 1110 | 1099 | 1088 | – | 1071 | 1063 | 1057
323.15 K | 1153 | – | – | 1106 | 1095 | 1085 | – | – | 1060 | 1054
328.15 K | 1148 | 1131 | 1116 | 1103 | 1092 | – | 1072 | 1065 | 1057 | –
333.15 K | 1144 | – | – | 1099 | 1088 | 1078 | – | 1061 | 1054 | –
338.15 K | 1139 | – | 1108 | 1095 | 1085 | 1075 | 1066 | 1059 | 1051 | 1045
343.15 K | 1134 | 1119 | 1104 | 1091 | 1081 | 1071 | – | 1055 | – | 1042
348.15 K | 1130 | 1114 | – | 1088 | 1077 | 1068 | – | 1053 | 1045 | 1039
353.15 K | 1125 | 1110 | 1096 | – | 1074 | 1065 | 1056 | 1049 | 1042 | 1036

CC1COC(=O)O1 (configuration not stated) + CCCC[n+]1ccccc1.N#C[N-]C#N
x2 = 0
Conditions | mass density [kg/m3]
288.15 K | 1210
293.15 K | 1204
298.15 K | 1199
303.15 K | 1194
308.15 K | 1189
313.15 K | 1183
323.15 K | 1173
328.15 K | 1167
338.15 K | 1157
343.15 K | 1151
348.15 K | 1146
353.15 K | 1141
